Among all 110,000 compounds or so, about 230 (0.21%) showed an effect of 50% or more. The list shows a part of the results.
What follows are compounds tested against DPAP1 (Plasmodium falciparum, UniProt Q8IIJ9) (assay: primary screen, percent inhibition; read by cleavage of a fluorogenic dipeptide substrate; higher = more effect of the substance).
Design: species or system P. falciparum D10 trophozoite lysates; single well
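Also: 30 min substrate incubation versus DMSO and 10 µM JCP410 controls.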

Chain of DPAP1 (Q8IIJ9 whole entry, looked up): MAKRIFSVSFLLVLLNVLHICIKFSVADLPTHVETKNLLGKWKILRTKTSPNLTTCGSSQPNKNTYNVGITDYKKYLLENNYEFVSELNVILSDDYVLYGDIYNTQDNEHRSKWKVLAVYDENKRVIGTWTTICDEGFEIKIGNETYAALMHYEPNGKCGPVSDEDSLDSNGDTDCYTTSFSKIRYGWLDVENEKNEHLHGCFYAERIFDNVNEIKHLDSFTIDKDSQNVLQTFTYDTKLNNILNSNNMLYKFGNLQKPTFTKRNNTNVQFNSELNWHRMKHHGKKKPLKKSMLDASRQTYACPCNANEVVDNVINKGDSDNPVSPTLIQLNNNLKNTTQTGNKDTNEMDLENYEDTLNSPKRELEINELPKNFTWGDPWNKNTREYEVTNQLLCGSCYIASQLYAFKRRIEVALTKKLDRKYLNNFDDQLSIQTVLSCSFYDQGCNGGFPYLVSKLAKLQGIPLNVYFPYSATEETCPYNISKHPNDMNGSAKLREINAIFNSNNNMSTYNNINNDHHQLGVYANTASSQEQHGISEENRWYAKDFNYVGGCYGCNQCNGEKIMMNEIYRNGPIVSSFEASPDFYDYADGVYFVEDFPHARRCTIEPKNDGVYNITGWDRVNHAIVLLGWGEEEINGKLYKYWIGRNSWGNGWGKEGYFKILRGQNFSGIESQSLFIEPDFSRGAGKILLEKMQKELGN

Compound	% Inhibition @ 10 uM
CCCCNC(=O)C1CCN(S(=O)(=O)CC)CC1	2.18%
COc1ccc(-c2cc(C(=O)NCc3ccco3)c3ccccc3n2)cc1OC	-1.42%
CCCN1C(=O)S/C(=C\c2cc(OC)c(O)cc2Br)C1=O	-0.519%
CC(C)CNS(=O)(=O)c1ccc(CCC(=O)N2CCN(C)CC2)cc1	-1.61%
CN(C)CCn1c2ccccc2c2nc3ccc([N+](=O)[O-])cc3cc21	1.24%
CC1=N/C(=C/c2cccnc2)C(=O)O1	21.5%
O=c1[nH]c(=O)n(-c2ccccc2)c2c1C(C(F)(F)F)(C(F)(F)F)NC(c1cccs1)=N2	-6.43%
CCOc1ccc(C(=O)N(C(=O)c2ccc(OCC)cc2)c2ncccc2C)cc1	3.04%
Cc1ccc(OCCCCn2c(C(C)O)nc3ccccc32)cc1 (stereo not drawn)	4.3%
CCCN(CCC)c1ccc(C2NC(=O)c3c(sc4c3CCN(C)C4)N2)cc1 (stereo not drawn)	5.31%
Cc1cc(C(F)(F)F)nc(SCC(=O)Nc2ncc(C(F)(F)F)cc2Cl)n1	2.42%
Cc1cc(OCCn2c(C)c(C=C3C(=O)N(C)C(=O)N(C)C3=O)c3ccccc32)ccc1Cl	-1.33%
CN1C(=O)c2ccccc2C(C(=O)O)C1c1ccc(F)cc1 (stereo not drawn)	-5.17%
COc1cc(-c2nnc3n(Cc4ccc(F)cc4)c(=O)c4ccccc4n23)cc(OC)c1OC	-1.72%
CCOC(=O)c1cnc(-c2ccccc2)nc1N1CCOCC1	2.39%
COc1cc(-c2nc3nc(C)cc(C)n3n2)cc(OC)c1OC	1%
Cc1ccc2nc(NC(=O)c3cc(=O)c4cc(C)cc(C)c4o3)sc2c1	1.9%
CCOC(=O)c1c(NC(=O)COCc2cc(-c3cccs3)on2)sc2c1CCCC2	-2.69%
COc1ccc(/C=C/C(=O)NCc2ccccc2C)cc1	11.1%
Cc1ccc(NC(=O)C23CC4CC(C2)CC(n2cncn2)(C4)C3)c(C)c1	-3.68%
COc1cc(CN2CCN(Cc3ccco3)CC2)cc(OC)c1OC	14.3%
N#Cc1cc2c(=O)n3ccccc3nc2n(CCc2ccccc2)c1=N	5.3%
Fc1ccc(CN2CCN(C/C=C/c3ccccc3)CC2)cc1	-3.71%
OCCN1CCN(Cc2ccccc2Cl)CC1	6.6%
Cc1cn2c3ccccc3nc2n1CCCO	-9.37%
CC(CNC(=O)Cn1c(=O)c2cccn2c2cccnc21)c1ccccc1 (stereo not drawn)	-2.97%

Compound	% Inhibition @ 10 uM
COc1cc(OC)c(C2NC(=O)C(C)S2)c(OC)c1 (stereo not drawn)	-0.239%
Cc1cc(=O)n(C(C)(C)C)c(=O)n1Cc1ccccc1	3.06%
Cc1ccc2cc(CCN3C(=O)c4ccccc4C3=O)c(O)nc2c1	-4.81%
Cc1ccc(-c2c(N3CC(=O)N(CCc4ccccc4)C(=O)C3)c(=O)c2=O)cc1	-1.69%
CCCC[C@H](NC(=O)C(CCS(=O)(=O)c1ccccc1)C(=O)NCc1ccccc1)C(=O)c1nc2ccccc2o1 (stereo partly drawn)	4.15%
CC1=C(c2ccc(C)cc2)S(=O)(=O)N=C1NCCCOC(C)C	3.87%
CC1=C(C(=O)Nc2ccccc2C)C(c2ccc(C)o2)n2c(s/c(=C/c3ccoc3)c2=O)=N1 (stereo not drawn)	-4.82%
CCOc1cc2c(cc1/C=C1/S/C(=N\c3ccc(N4CCOCC4)cc3)N(C)C1=O)OCO2	5.42%
CCCCOc1nc2ccccc2nc1NS(=O)(=O)c1ccc(N)cc1	-5.5%
Clc1nc(-c2ccccc2)c2c(n1)-c1ccccc1CC2	1.57%
COc1ccc(NC(=O)c2cccc(COc3ccc(Cl)cc3)c2)cn1	2.1%
CN(CCNC(=O)Cn1nc(-c2ccc(Cl)cc2)ccc1=O)Cc1ccccc1	1.62%
CCCn1nnc2sc(-c3ccccc3)cc2c1=O	2.41%
CC(NC(=O)c1c(F)cccc1F)c1nc2ccccc2[nH]1 (stereo not drawn)	-1.29%
CC(C)NC(=O)/C=C/C(=O)O	-0.256%
CC(C)c1ccc(C(=O)N2CCN(Cc3ccc4c(c3)OCO4)CC2)cc1	-0.95%
C#CCOc1ccc(/C=C2\SC(=O)N(CC=C)C2=O)cc1	3.8%
Cc1nc2c(c(C)nn2C(C)(C)C)c(C)c1CCC(=O)NCc1ccccn1	-2.45%
N#CCNC(=O)C(CC(=O)N1CCOCC1)CS(=O)(=O)Cc1ccccc1C(F)(F)F (stereo not drawn)	1.35%
O=C(O)CSc1nnnn1-c1ccccc1	-8.11%
O=C(NCCc1cccc(Cl)c1)NC1CCCCC1	-4.7%
O=C(Cc1c(F)cccc1Cl)Nc1ccccn1	0.163%
O=C(Nc1nc2c(Cl)cccc2s1)c1cccnc1Cl	-2.87%
CC(NC(=O)C1CC=CCC1C(=O)O)C12CC3CC(CC(C3)C1)C2 (stereo not drawn)	-0.999%
CN(C)CC#CC(O)(c1ccccc1)c1ccccc1	-0.424%
